Consider four molecules from patent US20250114416A1, “ANTIVIRAL COMPOSITION CONTAINING GINSENG EXTRACT AND STEROID COMPOUND AS ACTIVE INGREDIENTS” (priority 2022, published 2025).

One test deals with SARS-CoV-2 virus. Conditions: examples using ginseng (Table 1); lung tissue of K18-ACE2 TG mice, oral, three days after infection; non-treated control = 100.
For a further test, the system named is Influenza A virus. Particulars: examples using ginseng (Table 1); lung tissue of K18-ACE2 TG mice, oral, three days after infection; non-treated control = 100.

SMILES strings stand for the structures.

With `C[C@@H]1C[C@H]2[C@@H]3CCC4=CC(=O)C=C[C@]4(C)[C@@]3(F)[C@@H](O)C[C@]2(C)[C@@]1(O)C(=O)CO` [Comparative Example 4, Dexamethasone], the “Relative virus titer SARS-CoV-2 virus” value in the test with SARS-CoV-2 virus is listed as 101 ± 1.9. In addition, the “Relative virus titer Influenza A virus” value with Influenza A virus came out at 101 ± 1.9.
In the case of `C[C@]12CCC(=O)C=C1CC[C@@H]1[C@@H]2[C@@H](O)C[C@@]2(C)[C@H]1CC[C@]2(O)C(=O)CO` [Comparative Example 5, Hydrocortisone], the “Relative virus titer SARS-CoV-2 virus” value with SARS-CoV-2 virus is 102 ± 1.9. In addition, in the test on Influenza A virus, the “Relative virus titer Influenza A virus” value is 102 ± 1.9.
As for `C[C@]12C=CC(=O)C=C1CC[C@@H]1[C@@H]2[C@@H](O)C[C@@]2(C)[C@H]1CC[C@]2(O)C(=O)CO` [Comparative Example 6, Prednisolone], the “Relative virus titer SARS-CoV-2 virus” value in the test with SARS-CoV-2 virus is given as 101 ± 1.9. Besides, the “Relative virus titer Influenza A virus” value with Influenza A virus is listed as 103 ± 1.9.
For `C[C@]12C=CC(=O)C=C1CC[C@H]1[C@@H]3C[C@@H](O)[C@](O)(C(=O)CO)[C@@]3(C)C[C@H](O)[C@@]12F` [Comparative Example 7, Triamcinolone] the same measures were 101 ± 1.9 and 102 ± 1.9.
